Experimental findings from PubChem BioAssay AID1346428 (National Center for Advancing Translational Sciences (NCATS), 2018) are described below.

Values joined by “and” are separate entries in the source; they are usually repeats but may differ in a detail not shown here. Equal entries are not always repeated. Hit rate of the full screen: of about 48,000 compounds, about 1,200 (2.5%) were called active. Inconclusive results (about 2%) are left out.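 Rule for the calls: active = activation of at least 60% and not above a set upper limit (about 1 call in 100 departs from these limits); inconclusive = activation of 40% to 60%, or above that upper limit; inactive = activation under 40%.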 Some of the results follow.

UniProt O75388, sequence (O75388 whole entry, looked up): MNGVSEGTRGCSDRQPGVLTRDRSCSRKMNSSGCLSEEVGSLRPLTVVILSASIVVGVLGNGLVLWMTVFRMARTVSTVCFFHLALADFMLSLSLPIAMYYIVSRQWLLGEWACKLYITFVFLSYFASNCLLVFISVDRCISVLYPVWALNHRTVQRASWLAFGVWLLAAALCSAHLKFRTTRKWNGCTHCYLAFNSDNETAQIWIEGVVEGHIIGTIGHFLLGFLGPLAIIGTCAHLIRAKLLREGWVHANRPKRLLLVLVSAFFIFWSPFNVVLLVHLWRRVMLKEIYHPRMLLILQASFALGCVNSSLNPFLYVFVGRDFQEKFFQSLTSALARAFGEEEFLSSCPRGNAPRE

This assay addresses Probable G-protein coupled receptor 32 (Homo sapiens) (UniProt O75388). Briefly: qHTS for Agonists of Human Resolvin D1 Receptor DRV1. Note: 0% is about no effect. The note with it: CHO-K1 GPR32 beta-arrestin PathHunter luminescence, 90 min; at 76.9 µM; hits give high values; zero percent set by DMSO-only wells. In short, it runs like this:
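Step 1: seed CHO-K1 GPR32 beta-arrestin cells, 2,500/well, overnight at 37 °C. Step 2: add compounds, 90 min at 37 °C. Step 3: detection reagent, 1 h ambient, then luminescence.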
Background: qHTS replaces the single test concentration by a dilution series.
In the case of `NC(=O)c1cc(N2CC2)c([N+](=O)[O-])cc1[N+](=O)[O-]`, the activation was inactive: 11.1%. Next, `Cn1c(=O)n(C)c2cc(CNCCc3ccccc3F)ccc21`: inactive: -2.65%.

For the compound `O=c1n(Cl)c(=O)n(Cl)c(=O)n1Cl`, the activation is inactive: -12.5%. Next, `C[C@@H]1O[C@H](C[N+](C)(C)C)C[C@H]1O`: inactive: -9.97%; `CP(=O)(O)C1=CCNCC1`: inactive: -1.31%. Next, `NC(=O)CI`: inactive: -9.83%; `CN1CCC(O)(c2ccc(F)cc2)C(C(=O)c2ccc(F)cc2)C1` (stereo not drawn): inactive: 28.3%. Next, `Oc1ccc2c3c1O[C@H]1[C@@H](O)C=C[C@H]4[C@@H](C2)NCC[C@@]341`: inactive: 17.7%. On to `CCNc1nc(Cl)nc(NCC)n1`, for which the activation is inactive: -7.56%. Next, `Cc1cccc(C)c1NC(=O)CN1CCCC1=O`: inactive: -1.09% and inactive: 4.98%.

As to `O=C(COc1ccccc1[N+](=O)[O-])N1CCN(CCc2ccncc2)CC1`, the activation was inactive: 3.68%. As to `COc1ccc2[nH]c3c(c2c1)CCNC3`, the activation was inactive: -3.76%. In the case of `C[C@@H]1CC2=CC(=O)CC[C@@H]2[C@H]2CC[C@@]3(C)[C@@H](CC[C@]3(C)O)[C@@H]21`, the activation was inactive: 2.97%. Next, `Cc1cccc(C)c1OCC(=O)Nc1ccc(Cl)cc1C(=O)c1ccccc1`: inactive: -31.6%; `N#CC(C#N)=Cc1ccc(O)c(O)c1`: inactive: 19.3% and inactive: -26.8%; `COc1ccc(C)cc1NC(=O)c1cccn(Cc2ccccc2Cl)c1=O`: inactive: 1.01%. Next, `Cc1ccc(-n2c(/C=C/c3cc(Br)cs3)nc3ccccc3c2=O)cc1C`: inactive: -15.9%; `CC(C)C(Br)C(=O)NC(N)=O` (stereo not drawn): inactive: -6.87%; `COP(=O)(OC)OC=C(Cl)Cl`: inactive: -3.91%. Next, `CCOc1ccc(-n2c(/C=C/c3ccccc3)nc3ccccc3c2=O)cc1`: inactive: -1.6%; `N#Cc1cc2c(nc1SCC(=O)Nc1cccc(F)c1)C1CCN2CC1`: active: 67.7%. Consider `ClCCCN1CCN(c2cccc(Cl)c2)CC1`, for which the activation is inactive: 10.6%. Next, `Cc1sc2ccccc2c1CC1=NCCN1`: inactive: -3.14%; `CSc1ccc(C(c2c(O)c3ccccc3oc2=O)c2c(C)n(C)n(-c3ccccc3)c2=O)cc1` (stereo not drawn): inactive: -2.99%; `CC(=O)[C@H]1CC[C@H]2[C@@H]3CC[C@H]4C[C@](C)(O)CC[C@]4(C)[C@H]3CC[C@]12C`: inactive: -2.07% and inactive: -5.02%.

For the compound `CN1CCN(c2csc3ccc(F)cc3c2=O)CC1`, the activation is inactive: -11.7%. Next, `CN(C)CCc1ccc(O)cc1`: inactive: 1.8%; `NC1=NC(=O)C(c2ccccc2)O1` (stereo not drawn): inactive: 8.71%; `CCOC(=O)C1(c2ccccc2)CCN(CCC(C#N)(c2ccccc2)c2ccccc2)CC1`: inactive: -13.2%. Next, `N#Cc1cc([N+](=O)[O-])ccc1NC(=O)c1cccn(Cc2cccc(F)c2)c1=O`: inactive: -5.89%; `CCN(CC)C(=O)N[C@@H]1C=C2c3cccc4[nH]cc(c34)C[C@@H]2N(C)C1`: active: 63.6%.

As to `COc1cc(CC(C)N)c(OC)cc1I` (stereo not drawn), the activation is inactive: 1.87%. Next, `O=C(CCl)c1ccc(Cl)cc1Cl`: inactive: -56.2%; `C#C[C@]1(O)CC[C@H]2[C@@H]3CCC4=CC(=O)CCC4=C3C=C[C@@]21CC`: inactive: 0.696%; `O=C(Nc1ccc2c(c1)OCCO2)c1cccn(Cc2cccc([N+](=O)[O-])c2)c1=O`: inactive: -5.07%. Next, `CCC1(c2ccccc2)C(=O)N(COC)C(=O)N(COC)C1=O`: inactive: 7.54%.

As to `N[C@@H]1C[C@H]1c1ccccc1`, the activation was inactive: -17.4%. Next, `CC(C)NCC(O)c1ccc([N+](=O)[O-])cc1` (stereo not drawn): inactive: 0.008%; `Nc1c(C(=O)Nc2ccc(OC(F)(F)F)cc2)sc2nc3c(cc12)N1CCC3CC1`: inactive: 2.25%; `COc1cc(/C=C/c2nc3ccccc3c(=O)n2-c2ccc(Br)c(C)c2)ccc1O`: inactive: -12.7%. Next, `COc1nn(CSP(=S)(OC)OC)c(=O)s1`: inactive: -88.5%; `CCCCc1nc2ccccc2c(=O)n1-c1cccc(OC)c1`: inactive: -2.71%. Next, `CC(Cc1ccccc1)NCCn1cnc2c1c(=O)n(C)c(=O)n2C` (stereo not drawn): inactive: -29.9%; `C=CC(=O)NCNC(=O)C=C`: inactive: 20.6%; `O=C(c1ccc2c(c1)N(Cc1ccc(F)cc1Cl)C(=O)c1ccccc1S2)N1CCC2(CC1)OCCO2`: inactive: -29.1%. As to `Cc1ccc(NC(=O)CN2C(=O)CN=C(c3ccccc3)c3ccccc32)c(C)c1`, the activation is inactive: -46.3%. Next, `CCOP(=S)(OCC)O/N=C(\C#N)c1ccccc1`: inactive: -68.1%; `CC(=O)OC1(c2ccccc2)CCN(CCc2ccccc2)CC1`: active: 85.1%. Next, `CCN(CC)CCc1c[nH]c2ccccc12`: inactive: 6.59%. As for `COC1CC(=C(c2cccs2)c2cccs2)C[N+](C)(C)C1` (stereo not drawn), the activation was inactive: -10.8%. Next, `Cc1oc(-c2ccc(Cl)cc2)nc1CN1C(=O)CN=C(c2ccccc2)c2cc(Cl)ccc21`: inactive: -2.39%. For the compound `CN1CCN(C(=O)O[C@H]2c3nccnc3C(=O)N2c2ccc(Cl)cn2)CC1`, the activation was inactive: 5.7%.

Turning to `NC(=O)c1cc([N+](=O)[O-])cc([N+](=O)[O-])c1`, the activation was inactive: 16.1%. Next, `O=C1CC[C@@]2(O)[C@H]3Cc4ccc(O)c5c4[C@@]2(CCN3CC2CC2)[C@H]1O5`: inactive: -4.94%. As to `COc1ccc(-c2nn3c(=O)cc(CN4CCN(C(=O)COc5ccc(F)cc5)CC4)nc3s2)cc1`, the activation is inactive: -2.47%. Next, `COc1ccccc1-n1c(/C=C/c2ccccc2)nc2ccccc2c1=O`: inactive: -11.8%; `Cn1c(CCCC(=O)O)nc2cc(N(CCCl)CCCl)ccc21`: inactive: 31.8%; `O=C1CN=C(c2ccccc2)c2cc(Cl)ccc2N1Cc1ccc(Cl)cc1`: inactive: -13.4%. As for `COc1ccc(-c2nc(CN3C(=O)CN=C(c4ccccc4)c4ccccc43)c(C)o2)cc1OC`, the activation is inactive: -16.3%. In the case of `NC(CP(=O)(O)O)C(=O)O` (stereo not drawn), the activation was inactive: 6.24%. For `CCc1ccc(OCC(=O)N2CCN(CCc3ccccn3)CC2)cc1`, the activation was inactive: 20.9%. Next, `CN1CCc2cc(O)cc3c2[C@H]1Cc1ccc(O)c(O)c1-3`: inactive: 17.4%; `CC(NC(C)(C)C)C(=O)c1cccc(Cl)c1` (stereo not drawn): inactive: -37.5% and inactive: -4.38%.

In the case of `CCOc1ccc2nc(NC(=O)c3cccn(Cc4ccccc4C)c3=O)sc2c1`, the activation was inactive: 3.77%. Next, `CCC(=O)N1CC(=O)Nc2ccc(C)cc2C1c1ccc(F)cc1` (stereo not drawn): inactive: 12.2%.

On to `Cc1cc(NC(=O)c2cccn(Cc3cccc([N+](=O)[O-])c3)c2=O)no1`, for which the activation is inactive: -14.5%. Next, `C[C@H](N)Cc1cccc(C(F)(F)F)c1`: inactive: 5.21%; `NCc1cccnc1`: inactive: 9.91%. Next, `CN(C)[C@@H]1C(=O)C(C(N)=O)=C(O)[C@@]2(O)C(=O)C3=C(O)c4c(O)cccc4[C@@](C)(O)[C@H]3C[C@@H]12`: inactive: 5.97%; `Cc1ccccc1Cn1cccc(C(=O)Nc2cc(Cl)ccc2C#N)c1=O`: inactive: -1.86%; `Cn1c(=O)n(C)c2cc(CNCCc3ccccc3)ccc21`: inactive: -9.23%. Next, `O=C(Nc1ccc2c(c1)OCO2)c1cccn(Cc2ccc(F)cc2)c1=O`: inactive: 24.3%. `CCOC(=O)CC(SP(=S)(OC)OC)C(=O)OCC` (stereo not drawn): the activation was inactive: -111% and inactive: -23.9%. With `NCC(CC(=O)O)c1ccc(Cl)cc1` (stereo not drawn), the activation was inactive: -2.41% and inactive: -0.254%. `O=C1OC(c2ccc(O)c(S(=O)(=O)O)c2)(c2ccc(O)c(S(=O)(=O)O)c2)c2c(Br)c(Br)c(Br)c(Br)c21`: the activation was inactive: -5.77%. Next, `CC(C)=C[C@@H]1[C@@H](C(=O)OCc2coc(Cc3ccccc3)c2)C1(C)C`: inactive: 23.7%; `CCC(CC)(CNC(=O)CCCO)c1cccc(OC)c1`: inactive: -4.1%; `CCCN(CCC)CCc1c[nH]c2ccccc12`: inactive: -4.03%. Next, `CN1CC[C@]23c4c5ccc(O)c4O[C@H]2[C@@H](O)C=C[C@H]3[C@H]1C5`: inactive: 11.9%; `O=[N+]([O-])c1cc([N+](=O)[O-])c2ccccc2c1`: inactive: 34.8%; `C[Se]C[C@H](N)C(=O)O`: inactive: -13.9%. Next, `NC(N)=Nc1ccc2[nH]c3c(c2c1)C[C@@]1(O)[C@H]2Cc4ccc(O)c5c4[C@@]1(CCN2CC1CC1)[C@H]3O5`: inactive: -25.5%; `CCOC(=O)c1ncn2c1[C@@H]1CCCN1C(=O)c1cc(OC)ccc1-2`: inactive: -9.3%. As to `O=c1c2ccccc2nc(/C=C\c2cccc(Br)c2)n1-c1ccc(O)cc1`, the activation is inactive: -34.7%. Next, `CCC1(C2=NCCN2)Cc2ccccc2O1` (stereo not drawn): inactive: 1.55% and inactive: 17%. Next, `CCSc1nnc(NC(=O)c2cccn(Cc3ccc(Cl)cc3)c2=O)s1`: inactive: 18.5%.

As to `CC[C@@H](CO)NC(=O)[C@@H]1C=C2c3cccc4[nH]cc(c34)C[C@H]2N(C)C1`, the activation was inactive: 16% and inactive: 5.56%. Next, `CCOc1ccc(CN2C(=O)c3ccccc3Sc3ccc(C(=O)N4CCC5(CC4)OCCO5)cc32)cc1`: inactive: -8.61%; `Cc1c(C(c2ccc(O)cc2)c2c(O)c3ccccc3oc2=O)c(=O)n(-c2ccccc2)n1C` (stereo not drawn): inactive: -1.17%; `NC(=O)c1ccc(NC(=O)c2cccn(Cc3ccccc3)c2=O)cc1`: inactive: 0.404%. Next, `CCC1(CCC(C)C)C(=O)NC(=O)NC1=O`: inactive: 4.95%; `Cc1ccc(-n2c(/C=C/c3cccc(C(F)(F)F)c3)nc3ccccc3c2=O)cc1`: inactive: -7.23%; `CC(=O)c1ccc(NC(=O)c2sc3nc4c(cc3c2N)N2CCC4CC2)cc1`: inactive: 41%.
